Reference: paper PMC5388433
Changes are numbered by the printed parent chain. Results are given in words; binding and its absence hold for the method and conditions named. Some entries that bind do so weakly or less than the wild type. For part of these data: Sequences can lack the tags named with a protein.

The chains behind the UniProt entries cited, without tags or fusion partners.
UniProt P45973: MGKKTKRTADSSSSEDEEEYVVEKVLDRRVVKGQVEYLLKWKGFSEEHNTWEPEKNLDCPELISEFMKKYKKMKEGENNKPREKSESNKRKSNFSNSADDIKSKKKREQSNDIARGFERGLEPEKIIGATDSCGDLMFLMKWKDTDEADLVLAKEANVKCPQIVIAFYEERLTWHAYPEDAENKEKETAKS

Key:
[1] = molecular target: T1, KDM2A_(543-811) V801A/L803A (human) (UniProt Q9Y2K7); test: SEC; 50 μg of each protein mixed in 50 μl, 15 min at 4°C; Superdex 200 Increase 3.2/300; 50 mM Tris pH7.5, 100 mM NaCl, 5 mM β-mercaptoethanol; fractions on Coomassie-stained gels; both purified
T1 sequence: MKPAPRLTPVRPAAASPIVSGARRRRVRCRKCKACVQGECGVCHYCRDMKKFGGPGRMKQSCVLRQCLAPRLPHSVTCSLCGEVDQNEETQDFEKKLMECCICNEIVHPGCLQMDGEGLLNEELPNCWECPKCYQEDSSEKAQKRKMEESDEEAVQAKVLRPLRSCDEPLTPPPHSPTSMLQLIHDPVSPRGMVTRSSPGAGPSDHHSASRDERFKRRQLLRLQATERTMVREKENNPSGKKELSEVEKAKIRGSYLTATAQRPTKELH

[2] = molecular target: T2, KDM2A_(543-811) nucleosome recognition module (human) (UniProt Q9Y2K7); test: as above
T2 sequence: T1 sequence with A259V, A261L

[3] = molecular target: T3, purified full length FLAG-GFP-tagged KDM2A V801A/L803A (human) (UniProt Q9Y2K7); test: pull-down; as a6 but nucleosomes with CpG-methylated 601-DNA (M.SssI), which does not bind KDM2A; 2 μg purified full length FLAG-GFP-KDM2A (WT or V801A/L803A) and 2 μg HP1α; both purified
T3 sequence: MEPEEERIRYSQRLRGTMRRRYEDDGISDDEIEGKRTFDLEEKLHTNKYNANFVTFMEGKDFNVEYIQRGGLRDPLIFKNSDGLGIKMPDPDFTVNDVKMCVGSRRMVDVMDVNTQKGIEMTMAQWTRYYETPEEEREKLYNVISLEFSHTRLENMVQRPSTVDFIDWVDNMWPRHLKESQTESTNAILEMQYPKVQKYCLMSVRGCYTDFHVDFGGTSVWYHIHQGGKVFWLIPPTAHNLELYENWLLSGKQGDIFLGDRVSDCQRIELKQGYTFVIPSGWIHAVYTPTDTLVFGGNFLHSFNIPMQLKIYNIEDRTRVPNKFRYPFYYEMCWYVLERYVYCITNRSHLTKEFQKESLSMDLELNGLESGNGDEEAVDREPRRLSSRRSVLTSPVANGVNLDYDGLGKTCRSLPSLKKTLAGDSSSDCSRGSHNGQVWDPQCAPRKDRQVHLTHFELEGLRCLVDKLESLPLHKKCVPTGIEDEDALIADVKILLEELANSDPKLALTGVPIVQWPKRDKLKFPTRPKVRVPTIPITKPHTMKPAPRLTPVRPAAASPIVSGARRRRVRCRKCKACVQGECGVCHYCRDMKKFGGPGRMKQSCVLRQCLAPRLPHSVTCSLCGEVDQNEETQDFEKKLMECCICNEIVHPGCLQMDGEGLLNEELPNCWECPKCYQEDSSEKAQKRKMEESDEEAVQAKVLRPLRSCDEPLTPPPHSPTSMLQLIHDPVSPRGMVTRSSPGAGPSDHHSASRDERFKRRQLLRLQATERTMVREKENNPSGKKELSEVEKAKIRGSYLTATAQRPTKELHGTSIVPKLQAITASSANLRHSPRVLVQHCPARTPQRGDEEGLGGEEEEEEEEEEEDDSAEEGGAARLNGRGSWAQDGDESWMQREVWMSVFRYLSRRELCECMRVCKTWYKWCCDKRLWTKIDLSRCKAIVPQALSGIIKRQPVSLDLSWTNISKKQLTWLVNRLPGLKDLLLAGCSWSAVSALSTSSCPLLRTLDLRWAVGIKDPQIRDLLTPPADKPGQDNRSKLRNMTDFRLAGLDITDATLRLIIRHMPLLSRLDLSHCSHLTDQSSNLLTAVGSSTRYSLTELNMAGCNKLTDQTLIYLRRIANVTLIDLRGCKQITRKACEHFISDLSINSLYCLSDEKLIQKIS

In the case of “recombinant purified HP1α (WT) (from UniProt P45973 1-191)”, the binding [1] was “no binding (tested: 50 μg of each protein in 50 μl)”, the binding [2] was “binds” and the binding [3] was “no binding”.
